From publication PMC6919601, “Identification of Plasmodium dipeptidyl aminopeptidase allosteric inhibitors by high throughput screening” (PLoS ONE, 2019)
About 230 (0.21%) of roughly 110,000 compounds showed an effect of 50% or more. The list shows a part of the results.

Molecular target: DPAP1 (Plasmodium falciparum, UniProt Q8IIJ9)
Test: primary screen, percent inhibition; read by cleavage of a fluorogenic dipeptide substrate; higher = more effect of the substance
Design: species or system P. falciparum D10 trophozoite lysates; single well
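Note: 30 min substrate incubation versus DMSO and 10 µM JCP410 controls.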

Chain of DPAP1 (Q8IIJ9 whole entry, looked up): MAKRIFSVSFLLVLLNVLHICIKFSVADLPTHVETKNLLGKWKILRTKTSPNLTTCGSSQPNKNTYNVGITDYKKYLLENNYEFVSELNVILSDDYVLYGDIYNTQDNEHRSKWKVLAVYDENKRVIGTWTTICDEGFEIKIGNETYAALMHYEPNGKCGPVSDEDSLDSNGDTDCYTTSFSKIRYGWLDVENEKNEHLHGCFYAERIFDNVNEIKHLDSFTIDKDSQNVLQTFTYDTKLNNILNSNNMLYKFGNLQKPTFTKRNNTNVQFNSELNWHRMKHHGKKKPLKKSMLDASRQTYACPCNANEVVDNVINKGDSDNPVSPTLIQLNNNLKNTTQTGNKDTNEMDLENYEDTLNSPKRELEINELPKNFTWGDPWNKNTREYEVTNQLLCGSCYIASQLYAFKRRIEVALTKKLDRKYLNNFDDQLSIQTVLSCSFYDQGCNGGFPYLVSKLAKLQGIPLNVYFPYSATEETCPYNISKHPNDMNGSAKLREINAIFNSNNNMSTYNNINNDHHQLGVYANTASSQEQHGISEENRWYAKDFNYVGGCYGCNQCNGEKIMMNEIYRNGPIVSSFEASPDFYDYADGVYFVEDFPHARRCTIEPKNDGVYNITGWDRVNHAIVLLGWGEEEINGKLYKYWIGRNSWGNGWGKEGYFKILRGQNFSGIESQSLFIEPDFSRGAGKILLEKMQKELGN

Going from `CSc1ccc(C2c3c(oc4cc(C)cc(C)c4c3=O)C(=O)N2CCCOC(C)C)cc1` (centres unmarked) to `CC(C)OCCCNS(=O)(=O)c1ccc2nc(O)ccc2c1`, the “% Inhibition @ 10 uM” value falls from 4.83% to 1.92%.

Going from `Cc1cc(C)nc(N2CCN(S(=O)(=O)c3ccc(F)cc3)CC2)n1` to `Cc1cc(C)c(C)c(S(=O)(=O)N2CCC(N3CCCCC3)CC2)c1C`, the “% Inhibition @ 10 uM” value rises from -6.74% to -1.71%.

Going from `CN1CC2(C)CN(C(=O)c3ccccc3Cl)CC(C)(C1)C2` to `CCCC(=O)C1CCN(Cc2ccccc2)CC1`, the “% Inhibition @ 10 uM” value falls from -0.661% to -5.23%.

Compared with `CCCN1Cc2cccc(C(=O)NC3CCCC3)c2C1=O`, `CCN1CCCC1CNC(=O)c1nn(C)c2c1CS(=O)(=O)c1ccccc1-2` (centres unmarked) is higher in “% Inhibition @ 10 uM” value: 1.23% for the first, 2.03% for the second.

First: COc1ccc(CNC(=O)CCCN2C(=O)CSc3ncccc32)cc1
Second: COc1ccc(N2CC(C(=O)NC(C)C)CC2=O)cc1 (centres unmarked)
The “% Inhibition @ 10 uM” value of the first is lower: -4.15% for the first, 1.62% for the second.

Compared with `CS(=O)(=O)C1=NN2C(=N)/C(=C\c3ccco3)C(=O)N=C2S1`, `COc1ccc(NC(=O)CN(c2cc(C)ccc2OC)S(C)(=O)=O)cc1Cl` is lower in “% Inhibition @ 10 uM” value: -7.21% for the first, -16% for the second.

First: COc1ccc(C(=O)Nc2cc(Cl)ccc2Cl)cc1[N+](=O)[O-]
Second: COc1ccc(S(=O)(=O)N(CC(=O)Nc2ccc3c(c2)OCO3)c2ccc(Cl)cc2)cc1
The “% Inhibition @ 10 uM” value of the first is lower: 0.467% for the first, 2.95% for the second.

Going from `O=C(c1ccc(Cl)cc1)C(CN1CCOCC1)c1ccccc1` (centres unmarked) to `O=C(c1ccc(F)cc1)N1CCC(Cc2ccccc2)CC1`, the “% Inhibition @ 10 uM” value falls from -0.233% to -3.44%.

Compared with `CCN(Cc1ccccc1)C(=O)CSc1nc2cn(CC)nc2c(=O)n1CCc1ccccc1`, `COc1ccc(C(=O)N2CCN(C(c3ccccc3)c3ccccc3)CC2)cc1` is higher in “% Inhibition @ 10 uM” value: -4.55% for the first, 1.7% for the second.

First: CCn1c(C(=O)N2CCC(Cc3ccccc3)CC2)cc2sccc21
Second: CC(C)N(Cc1nc(-c2ccccc2)no1)C(=O)CCC1CCCC1
The “% Inhibition @ 10 uM” value of the first is higher: -1.37% for the first, -4.03% for the second.

Going from `O=C1CNC(=O)/C1=C/c1ccc(Br)cc1` to `Cc1ccc(N2C(=O)CSC23C(=O)Nc2ccccc23)cc1Cl` (centres unmarked), the “% Inhibition @ 10 uM” value rises from -0.424% to 4.32%.

Compared with `Cc1nn(-c2ccc(F)cc2)c(O)c1/C=N/c1ccccc1C(=O)O`, `CCN(CC)S(=O)(=O)c1ccc(NC(=O)c2ccccc2C)cc1` is lower in “% Inhibition @ 10 uM” value: -4.03% for the first, -7.46% for the second.

First: Cc1ccc(-c2nc(CSc3nc4ccncc4[nH]3)c(C)o2)cc1
Second: Cc1ccc(C(O)CSc2nccn2C)cc1 (centres unmarked)
The “% Inhibition @ 10 uM” value of the first is lower: -2.59% for the first, 0.401% for the second.

Compared with `Cc1ccc(C(=O)N(Cc2nc(-c3ccccc3)no2)C(C)C)cc1C`, `CCOc1ccccc1-c1nc(-c2ccc(C)nc2OC)no1` is lower in “% Inhibition @ 10 uM” value: -1.24% for the first, -3.36% for the second.

Going from `COc1ccc(-c2cc3nc(C)c(CCC(=O)N4CC(C)CC(C)C4)c(C)n3n2)c(OC)c1` (centres unmarked) to `CCOc1ccc(CCNC(=O)C2CCCN(c3ncnc4onc(C)c34)C2)cc1` (centres unmarked), the “% Inhibition @ 10 uM” value falls from -0.685% to -3%.

Going from `CC1(O)N(CCc2c[nH]c3ccccc23)C(=O)OC12CCCCC2` (centres unmarked) to `CC(C)(C)C(/C=C\c1ccc(Cl)cc1Cl)n1nnnc1C1(Nc2ccccc2)CCCC1` (centres unmarked), the “% Inhibition @ 10 uM” value falls from -2.19% to -5.38%.

Compared with `C=CCOc1ccc2c(OC)c3ccoc3nc2c1OC`, `COc1ccc(CCNCc2ccc(C)s2)cc1OC` is higher in “% Inhibition @ 10 uM” value: -0.687% for the first, 2.48% for the second.

Compared with `COc1ccc(S(=O)(=O)N(CC(=O)N2CCc3ccccc3C2)c2cccc(Cl)c2)cc1`, `C=CCNC(=O)c1ccccc1NC(=O)CN(c1cccc(Cl)c1)S(C)(=O)=O` is higher in “% Inhibition @ 10 uM” value: -11% for the first, 6.01% for the second.

First: COc1ccc(C2N[C@H](C(=O)O)CS2)cc1OC (some centres unmarked)
Second: Cc1nn(Cc2cccc(C(=O)O)c2)c(C)c1Br
The “% Inhibition @ 10 uM” value of the first is lower: -1.59% for the first, 3.8% for the second.

Going from `O=C(CCN1C(=O)c2ccccc2S1(=O)=O)Nc1ccc(Cl)cc1` to `CC(C)c1ccc(NC(=O)CN(c2ccc(F)cc2)S(C)(=O)=O)cc1`, the “% Inhibition @ 10 uM” value rises from -3.09% to 0.324%.

Compared with `CCCCNC(=O)c1cc2ccccc2s1`, `CCOC(=O)C1=C(N)Oc2c(oc(CO)cc2=O)C1c1ccccc1C(F)(F)F` (centres unmarked) is higher in “% Inhibition @ 10 uM” value: -2.36% for the first, 3.39% for the second.

First: CCOC(=O)CSc1nnc(Nc2ccc(Cl)cc2)n1-c1ccc(Cl)cc1
Second: CCc1c(C)sc(NC(=O)Cc2ccc(Cl)cc2)c1C(N)=O
The “% Inhibition @ 10 uM” value of the first is higher: -0.736% for the first, -1.89% for the second.

Going from `CCOc1ccc(C2C3=C(O)CC(C)(C)CC3=Nc3ncnn32)cc1` (centres unmarked) to `CCCc1nc(N)nc2c1C(=O)CC(C)(C)C2`, the “% Inhibition @ 10 uM” value rises from -0.828% to 0.774%.

First: Cc1nnc(N2CCOCC2)c2c1nnn2Cc1ccccc1Cl
Second: Cc1n[nH]c(C)c1CCCCCOc1ccccc1C(C)(C)C
The “% Inhibition @ 10 uM” value of the first is higher: 3.27% for the first, -1.64% for the second.

Going from `C/C=C(\C)CN1CCC(C(N)=O)CC1` to `Cc1ccc(S(=O)(=O)NC2CCC(C(=O)O)CC2)cc1` (centres unmarked), the “% Inhibition @ 10 uM” value rises from -5.11% to -0.597%.
